Reference: PubChem BioAssay AID1468 (National Center for Advancing Translational Sciences (NCATS), 2008)
In all, about 280,000 compounds went through this assay and about 1,100 (0.39%) were called active. Inconclusive means that the source gave no clear call. Such entries were picked first, then a sample of the others. Calls follow the shape of the dose curve; as a rule, active = well fitted inhibition curve with a large enough effect; inconclusive = small, poorly fitted or top-dose-only effect, or effect the other way; inactive = flat fitted curve, though single readings scatter. No potency is given beside an inconclusive call; the fits are too rough.

These molecules were tested against Microtubule-associated protein tau (Homo sapiens) (UniProt P10636) (assay: qHTS for Inhibitors of Tau Fibril Formation, Fluorescence Polarization). Settings: K18 P301L tau heparin fibrillization, Alexa594 FP, 6 h; series mostly up to 57.7 µM; activity, negative = inhibition: at the top concentration.
How it was run: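 Human tau K18 […] P301L fragment, 15 uM unlabeled plus 0.24 uM Alexa 594-labeled tau (final), with compound and 20 uM heparin in 100 mM sodium acetate pH 7; 6 hr at 37 C, then Alexa 594 FP read.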
% is scaled to controls: 0 for no effect and ±100 for the full control effect; potency is read from the fitted curve at half-maximal effect; tags tell the direction and shape of the fitted curve.
Also: nearly all actives have a fitted effect of over 55% in size.

UniProt P10636, sequence (P10636 whole entry, looked up, the tested form may be a part): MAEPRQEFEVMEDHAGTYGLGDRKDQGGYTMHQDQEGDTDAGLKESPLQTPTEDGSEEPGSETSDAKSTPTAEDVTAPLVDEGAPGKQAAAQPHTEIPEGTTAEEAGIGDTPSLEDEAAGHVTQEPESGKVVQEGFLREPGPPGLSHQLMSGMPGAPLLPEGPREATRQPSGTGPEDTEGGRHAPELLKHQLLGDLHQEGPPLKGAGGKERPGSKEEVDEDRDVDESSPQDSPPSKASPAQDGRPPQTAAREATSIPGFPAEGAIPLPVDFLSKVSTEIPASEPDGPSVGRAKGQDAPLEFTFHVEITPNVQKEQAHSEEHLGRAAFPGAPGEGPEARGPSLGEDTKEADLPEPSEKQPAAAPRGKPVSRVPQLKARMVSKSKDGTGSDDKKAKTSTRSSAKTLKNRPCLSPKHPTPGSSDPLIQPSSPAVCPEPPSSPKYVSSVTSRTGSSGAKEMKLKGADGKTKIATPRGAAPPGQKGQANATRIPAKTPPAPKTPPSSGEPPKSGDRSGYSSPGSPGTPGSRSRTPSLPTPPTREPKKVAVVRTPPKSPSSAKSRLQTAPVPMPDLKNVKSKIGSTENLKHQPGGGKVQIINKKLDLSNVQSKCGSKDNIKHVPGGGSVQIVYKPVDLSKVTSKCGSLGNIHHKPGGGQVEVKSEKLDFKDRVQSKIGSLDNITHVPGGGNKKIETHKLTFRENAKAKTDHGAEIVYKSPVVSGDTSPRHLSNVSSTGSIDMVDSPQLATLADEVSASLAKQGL

SMILES | Potency | activity, negative = inhibition
O=C(Nc1ccc(OC(=O)c2ccccc2)c(-c2nc3ccccc3s2)c1)c1ccccc1 | inconclusive [inhibitor, single point] | –
O=S(=O)(NC1CCCCC1)c1cccc(-c2nnc(-c3ccccc3)o2)c1 | – | inactive: 9.3%
CCCCOC(=O)c1ccc(NC(=O)Cn2nnc3sc4c(c3c2=O)CCCC4)cc1 | inconclusive [inhibitor, full curve] | –
COC(=O)CSc1nnc(C)n1-c1cccc(OC)c1 | – | inactive: -7.59%
FC(F)(F)c1cccc(Cc2noc(CN3CCCC(OCc4ccccn4)C3)n2)c1 (configuration not stated) | – | inactive: 9.12%
Cc1ccc(N(C)S(=O)(=O)c2cccc(C(=O)Nc3nc4ccccc4[nH]3)c2)cc1 | inconclusive [inhibitor, single point] | –
COc1ccc(COC(=O)N/N=C2/C[C@@H](O)[C@@H](O)[C@@H]3[C@H]4C(=O)N(c5ccc(F)cc5F)C(=O)[C@@H]4CC[C@H]23)cc1 | – | inactive: -4.95% [at 11.6 µM]
C#CCCCO/N=C1/C[C@@H](O)[C@@H](O)[C@@H]2[C@@H]3C(=O)N(Cc4ccccc4)C(=O)[C@H]3CC[C@@H]12 | – | inactive: 3.22% [at 11.6 µM]
Cc1ccc(NC(=O)CSc2ncc3c(n2)-c2ccc(Cl)cc2N(C)S3(=O)=O)cc1F | inconclusive [inhibitor, partial curve, poor fit] | –
COc1ccc(-c2noc(Cn3c(=O)c4ccccc4n(CC(=O)Nc4cccc(OC)c4)c3=O)n2)cc1 | inconclusive [inhibitor, partial curve] | –
COc1cc(OC)cc(N2C(=O)N(CC(=O)c3ccc(F)cc3)c3ccccc3S2(=O)=O)c1 | inconclusive [inhibitor, single point] | –
CCOC(=O)c1ccc(NC(=O)N2CCOc3ccccc32)cc1 | inconclusive [inhibitor, partial curve] | –
O=C(CSc1ccccn1)Nc1nc2ccccc2s1 | – | inactive: -5.65%
Cc1cc(Br)ccc1NC(=O)C1CCN(S(=O)(=O)c2cccc3nsnc23)CC1 | – | inactive: -7.51%
CN1C(=O)C(Cl)(Cl)C(=O)c2ccccc21 | active: 7.08 µM | –
CCOc1cc(NC(=O)c2ccccn2)c(OCC)cc1NC(=O)c1ccccc1 | inconclusive [activator, full curve, poor fit] | –
CCCCC(=O)Nc1ccc(C(=O)Nc2ccc(S(=O)(=O)Nc3ccc(C)cc3)cc2)cc1 | inconclusive [inhibitor, single point] | –
CC1CCN(S(=O)(=O)c2ccc(C(=O)NCc3ccc4c(c3)OCO4)cc2)CC1 | inconclusive [inhibitor, single point] | –
CCCCCSc1nc2sc3c(c2c(=O)n1-c1ccccc1)CCN(C(C)=O)C3 | inconclusive [inhibitor, single point] | –
CC(C)C[C@H](N)CSSC[C@@H](N)CC(C)C | inconclusive [inhibitor, full curve] | –
CC(C)(C)C(=O)Nc1nc(=S)ss1 | inconclusive [inhibitor, single point] | –
Oc1ccc(N=Nc2c(O)ccc3ccccc23)cc1 | inconclusive [inhibitor, single point] | –
COC(=O)c1c(-c2cccs2)csc1NC(=O)COc1c(C)ccc(C)c1C | inconclusive [inhibitor, partial curve] | –

SMILES | Potency | activity, negative = inhibition
CCOC(=O)c1cnc2cc(C(F)(F)F)ccc2c1Nc1ccc(F)cc1F | – | inactive: -1.17%
CCOC(=O)N/N=C/c1c(C)nn(-c2cccc(C(F)(F)F)c2)c1Cl | inconclusive [activator, single point] | –
Cc1noc(C)c1CSCC(=O)Nc1nc2ccc(Oc3ccccc3)cc2s1 | inconclusive [inhibitor, partial curve] | –
COc1cc(O)c2c(c1)OC(C)(C)CC2=O | – | inactive: -5.49%
C/C(CC(=O)Nc1ccc(Cl)cc1Cl)=N\NC(=O)c1ccncc1 | – | inactive: 0.698%
COc1cc(NC(=O)c2ccc(NS(=O)(=O)c3c(C)noc3C)cc2)cc(OC)c1 | inconclusive [inhibitor, partial curve, poor fit] | –
Cc1cc(/C=C2\NC(=S)N(C)C2=O)ccc1N1CCCC1 | inconclusive [activator, partial curve] | –
CCN(CC)c1ccc(NC2CC(=O)N(CCc3ccc(OC)cc3)C2=O)cc1 (configuration not stated) | inconclusive [inhibitor, single point] | –
O=S(=O)(/N=C(/Nc1ccc(F)cc1F)c1ccccc1)c1ccc(Br)cc1 | inconclusive [inhibitor, single point] | –
COc1cccc(NC(=O)CN2C(=O)c3cccc4cccc2c34)c1 | inconclusive [inhibitor, full curve] | –
COc1ccc(CNc2ncnc3c2nc2n3CCCC2)cc1 | – | inactive: -13.6%
NC(=O)[C@@H]1CCCCNc2c(F)cc([N+](=O)[O-])cc2C(=O)N[C@@H](CC(=O)O)C(=O)N[C@@H](CCC(=O)O)C(=O)N1 | – | inactive: -0.887%
COc1ccc2c(c1)c1c(c(=O)n(-c3ccccc3C)c(=O)n1Cc1cccc(C(F)(F)F)c1)n2C | – | inactive: -5.51%
O=c1[nH]c2c(s1)C(c1cccnc1)C1C3CCC(C3)C1S2 (configuration not stated) | – | inactive: -2.89%
CC1(C)Cc2c(sc3ncn4c(=S)[nH]nc4c23)CO1 | inconclusive [inhibitor, single point] | –
CC(C)c1ccc(CN2CCC(C(=O)NCc3cccnc3)CC2)cc1 | – | inactive: -1.82%
CC(C)n1c(=O)[nH][nH]c1=S | inconclusive [inhibitor, partial curve] | –
COC(=O)c1cc2sc(Cl)cc2n1Cc1nc(-c2cccc(C)c2)oc1C | – | inactive: -1.88%
CC(=O)Oc1ccc(N2C(=O)C3C(C2=O)C2(C)C=CC3(C)O2)cc1 (configuration not stated) | – | inactive: -8.81%
COc1ccc(S(=O)(=O)N(CCO)c2ccccc2CN(C)CC=Cc2ccc(Cl)cc2)cc1 | – | inactive: -1.29%
CS(=O)(=O)c1ccc(C(=O)NCCN2C(=O)S/C(=C\c3cccnc3)C2=O)cc1[N+](=O)[O-] | inconclusive [inhibitor, full curve, poor fit] | –
CCN(CC)S(=O)(=O)c1ccc(NC(=O)CN(c2ccccc2)S(=O)(=O)N(C)C)cc1 | inconclusive [inhibitor, partial curve] | –
CCOC(=O)c1c(NC(=O)C(C)Sc2cccc[n+]2[O-])sc2c1CCN(Cc1ccccc1)C2 (configuration not stated) | inconclusive [inhibitor, partial curve] | –

SMILES | Potency | activity, negative = inhibition
Cc1cc(C)c(C(=O)Cn2nc(C(=O)O)c3ccccc3c2=O)cc1C | inconclusive [inhibitor, single point] | –
Cc1ccc(/C(N)=N/OC(=O)c2ccc3c(c2)OCO3)cc1 | inconclusive [inhibitor, single point] | –
COc1cc(-c2nc3ccc(C)cn3c2Nc2ccc3c(c2)OCCO3)ccc1O | – | inactive: 10.5%
CC(=O)c1cccc(NC(=O)CSc2nnc3ccc(-c4ccc(Br)cc4)nn23)c1 | inconclusive [inhibitor, partial curve] | –
CCOC(=O)c1ccc(NC(=O)/C=C/c2cccs2)cc1 | inconclusive [inhibitor, partial curve] | –
O=c1oc2ccccc2c(NCCc2ccccc2)c1[N+](=O)[O-] | inconclusive [inhibitor, single point] | –
Cc1cc(Cl)ccc1N=c1ssnc1Cl | active: 22.4 µM | –
CC1(C)C(O)CC[C@]2(C)C1CC[C@@]1(C)C2C(=O)C=C2[C@@H]3C[C@@](C)(C(=O)O)CC[C@@]3(C)CCC21C (some centres not stated) | inconclusive [inhibitor, partial curve, poor fit] | –
CCOc1ccc(S(=O)(=O)Nc2cc(S(=O)(=O)N(CC)CC)ccc2N2CCCC2)cc1 | inconclusive [activator, single point] | –
Cn1cccc1CC(=O)N/N=C\c1ccccc1 | – | inactive: -2.98%
O=C(c1ccc(O)cc1)c1ccc(C(=O)c2ccc(O)cc2)cc1 | inconclusive [inhibitor, single point] | –
CC1(C2CC2)NC(=O)N(CC(=O)Nc2ccccc2-c2ccccc2)C1=O (configuration not stated) | – | inactive: 3.4%
COc1ccc(Cl)c2sc(NC(=O)c3ccc(S(=O)(=O)N4CCOCC4)cc3)nc12 | inconclusive [inhibitor, full curve] | –
CCCn1nc2cc(C(=O)NCC34CC5CC(CC(C5)C3)C4)ccc2c1OCC | – | inactive: 6.82%
COc1ccc(NC(=O)COCc2cc(-c3ccc4c(c3)OCO4)on2)cc1 | inconclusive [inhibitor, partial curve, poor fit] | –
CCC/C=C(\CCC)C(NC(=O)Oc1ccc(F)cc1)c1ccc(C(=O)OC)cc1 (configuration not stated) | – | inactive: 6.27%
Cc1ccc2nc(/C(C#N)=C\c3ccc(OC(=O)c4cccs4)cc3)[nH]c2c1 | inconclusive [inhibitor, single point] | –
O=C(CSc1nnc(-c2ccccc2Cl)o1)N1CCCc2ccccc21 | – | inactive: 3.49%
NC(=O)[C@@H]1[C@@H]2C(=O)N(c3ccc(F)cc3)C(=O)[C@@H]2[C@H]2C=Cc3ccccc3N21 | inconclusive [inhibitor, partial curve] | –
C/C(=N\Nc1ccccc1)c1cc2ccccc2oc1=O | inconclusive [inhibitor, partial curve, poor fit] | –
COc1cccc(/C=N/NC(=O)c2ccccc2NC(=O)c2ccco2)c1OC | inconclusive [inhibitor, partial curve, poor fit] | –
